Experimental data reported in PubChem BioAssay AID686979 (National Center for Advancing Translational Sciences (NCATS), 2013).
About 50,000 (12%) of roughly 420,000 compounds were called active. Inconclusive results, whose numbers are uncertain, are shown with a selection of clear calls. Calls follow the shape of the dose curve; as a rule, active = well fitted inhibition curve with a large enough effect; inconclusive = small, poorly fitted or top-dose-only effect; inactive = flat fitted curve, though single readings scatter. No potency is given beside an inconclusive call; the fits are too rough.

experiment: qHTS for Inhibitors of human tyrosyl-DNA phosphodiesterase 1 (TDP1): qHTS in cells in presence of CPT; conditions: chicken DT40 Tdp1-/-;hTDP1 cells + 20 nM CPT, ATP luminescence, 48 h; activity change, negative = growth inhibition: at 46.2 µM (top of the series) unless noted; also: nearly all actives have a fitted effect of over 55% in size
Outline: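 Chicken DT40 Tdp1-/- cells stably complemented with human TDP1 were seeded at 400 cells/well in medium containing 20 nM camptothecin, exposed to pin-transferred compounds, and grown at 37 °C for at least 48 hr. Viability was read as ATP luminescence.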
% is scaled to controls: 0 for no effect and ±100 for the full control effect; potency is read from the fitted curve at half-maximal effect; tags tell the direction and shape of the fitted curve.

SMILES	Potency	activity change, negative = growth inhibition
N/C(=N\NC(=O)Nc1ccc(Cl)cc1)c1ccccn1	inactive	
COC(=O)c1ccc(COc2cccc3c2CCN(Cc2ccccc2)C3=O)o1	inconclusive [inhibitor, single point]	
O=C(O)c1cc(-c2ccc(/C=N/N3C(=O)C4C5C=CC(CC5)C4C3=O)o2)ccc1Cl (centres undefined)	inactive	
COC(=O)C1=C(C)N(c2ccc(C)c(C)c2)/C(=C/c2ccc(O)cc2)C1=O	inactive	
Cc1ccc(Cl)cc1N1CCN(C(=O)c2cccn2-c2nnc(N3CCCCC3)s2)CC1	active: 18.4 µM	
COc1cc(NCCCNC(C)C)c2nccc(C)c2c1	inconclusive [inhibitor, partial curve, poor fit]	
Fc1cccc(Cl)c1CNc1n[nH]c(-c2ccco2)n1	inconclusive [inhibitor, single point]	
CCN(CC)C(=O)C1CCCN(Cc2ccccc2)C1 (centres undefined)		inconclusive: -31.6% [inhibitor]
O=C(NC(=O)N1CCCC1)c1csnn1	inactive	
CSc1ccc(/C=N/n2c(C3CCCCC3)n[nH]c2=S)cc1	inconclusive [inhibitor, single point]	
O=C(COc1ccc2ccccc2c1)NNC(=O)c1cnccn1	active: 23.1 µM	
CC(C)CCNC(=O)c1ccc(Cn2c(SCC(=O)NC(C)C)nc3ccccc3c2=O)cc1	inconclusive [inhibitor, partial curve]	
O=C(Nc1c(C(=O)O)oc2ccc(Br)cc12)c1ccccc1	inconclusive [inhibitor, single point]	
Cc1cc(NC(=O)C(C)SCC(=O)OCc2ccc([N+](=O)[O-])cc2)no1 (centres undefined)	inactive	
CC(/C=N/n1c(-c2ccccc2)n[nH]c1=S)=C\c1ccco1	inconclusive [inhibitor, single point]	
O=C(Nc1ccc(F)cc1)N(CCCN1CCOCC1)Cc1cc2cc3c(cc2[nH]c1=O)OCO3	inconclusive [inhibitor, partial curve, poor fit]	
CC1CCN(CCOc2ccc(Cl)c(Cl)c2)CC1	inactive	
CCOC(=O)N1CCN(Cc2nc3cc(NC(=O)c4cccs4)ccc3n2C)CC1	inconclusive [inhibitor, partial curve]	
CCC(C)[C@H](NC(=O)N1CC(=O)Nc2ccccc21)C(=O)N1CCC(C(=O)O)CC1 (some centres undefined)	inactive	
CCCCCC(=O)Nc1ccc(C2C(=O)c3ccccc3C2=O)cc1	inconclusive [inhibitor, single point]	
O=C(NCCCl)Nc1ccc(Cl)c([N+](=O)[O-])c1	inconclusive [inhibitor, partial curve, poor fit]	
OCC[C@@H]1C[C@H](O)[C@@H](O)[C@]2(OCCc3cc(Cl)ccc32)O1	inactive	
CNC(=O)c1sc(Nc2cc(C)ccc2C)nc1C	inactive	
O=C(NNC(=O)c1csc(N2CCOCC2)n1)c1ccc(Cl)nc1	inactive	
C=CCNc1nc(NCc2cccc(OC)c2)c2sc(-c3ccccc3)cc2n1	active: 5.8 µM	

SMILES	Potency	activity change, negative = growth inhibition
Cc1ccc(N(Cc2cc3ccc(C)cc3[nH]c2=O)S(=O)(=O)c2ccccc2)c(C)c1	inconclusive [inhibitor, single point]	
O=c1c(Cl)c(NCc2ccccc2)cnn1C12CC3CC(CC(C3)C1)C2	inactive	
COc1ccc(N2CCN(c3nc(NCCc4ccc(OC)c(OC)c4)nc(OC)n3)CC2)cc1	active: 6.51 µM	
Cc1cc(OCC(=O)Nc2ccccc2N2CCCCC2)ccc1C(C)C	inconclusive [inhibitor, single point]	
Cc1ccc(NC(=O)C2CCN(S(=O)(=O)c3cccs3)CC2)c(O)c1	inconclusive [inhibitor, partial curve]	
Cc1ccc2nc(Cl)c3cc(C(=O)NCCCN4CCC(C)CC4)sc3c2c1	inconclusive [inhibitor, single point]	
O=C(NN(c1ccccc1)c1ccccc1)c1ccc([N+](=O)[O-])o1	inconclusive [inhibitor, single point]	
O=S(=O)(c1ccc(Br)cc1)c1nc(-c2ccco2)oc1NCCCn1ccnc1		inconclusive: -32.5% [inhibitor]
O=C(Nc1ccccc1)c1ccco1	inactive	
Cc1ccccc1NC(=O)C1CCCN(c2ncnc3onc(-c4ccc(F)cc4)c23)C1 (centres undefined)	inconclusive [inhibitor, partial curve]	
Cc1oc2ccc(OCc3ccc(F)cc3)cc2c1C(=O)O	inactive	
COc1ccc(NC(=O)CN(C)CC(=O)Nc2ccc(Cl)cc2[N+](=O)[O-])cc1	inconclusive [inhibitor, partial curve]	
CCC1(C(=O)OC)CCc2c(cc(OC)c3ccccc23)C1=O (centres undefined)	inconclusive [inhibitor, single point]	
COc1ccc(N(C(=O)c2ccco2)S(=O)(=O)c2cc(Cl)c(Cl)cc2Cl)cc1	active: 18.4 µM	
CCOc1ccc(-n2c(-c3ccccc3)nnc2-c2ccccc2)cc1		inconclusive: -32.8% [inhibitor]
COc1ccc(CC(=O)Nc2ccccc2-c2ccccc2)cc1OC	active: 16.4 µM	
Cc1cc(NC(=O)c2ccc(-c3ccc(Br)cc3)o2)cc(-c2nc3ncccc3o2)c1O	inactive	
CCCCCC(=O)N1C[C@H](n2cc(C3CC3)nn2)[C@@H](O)C[C@@H]1c1ccc(OC)cc1	inactive	
CCOCCCN1CC(=O)N2[C@@H](Cc3c([nH]c4ccccc34)C2(C)C)C1=O	inconclusive [inhibitor, single point]	
Nc1[nH]n2c(=O)cc(-c3ccccc3)nc2c1N=Nc1ccc(S(N)(=O)=O)cc1	inactive	
CCc1ccc(-n2c(SCC(=O)NC(C)CC)nc3n[nH]c(C)c3c2=N)cc1 (centres undefined)	active: 5.8 µM	
CCOc1ccc(OCCC(=O)OCC(=O)N2CCN(S(=O)(=O)c3ccc(C)cc3C)CC2)cc1		inconclusive: -30.3% [inhibitor]
COc1ccc(NC(=S)N2CCN(S(C)(=O)=O)CC2)cc1	inactive	
N#Cc1cc2ccccc2n2nnnc12	inactive	
COc1ccc(S(=O)(=O)N(C)CC(=O)Nc2ccc(C(F)(F)F)cc2)cc1Cl	inconclusive [inhibitor, single point]	

SMILES	Potency	activity change, negative = growth inhibition
Cc1ccc(/C(N)=N/OC(=O)c2cccs2)cc1	active: 23.1 µM	
Cn1c(=O)[nH]c(=O)c2c1nc(NCc1ccccc1)n2CCCc1ccccc1	inconclusive [inhibitor, single point]	
O=C(NCc1ccccc1)N1CCN(c2ccc(F)cc2)CC1	active: 18.4 µM	
COc1ccc(NC(=O)Cc2csc(COc3cccc(C)c3)n2)cc1OC	active: 18.4 µM	
CCc1cc2c(cc3c(=O)n(CC(=O)N4CCCCC4)nc(CC)n32)s1	inconclusive [inhibitor, single point]	
NC(=O)c1cccc(-c2coc3c(C(=O)NCc4ccccc4)cccc23)c1	inconclusive [inhibitor, single point]	
C[C@H](CO)N1C[C@H](C)[C@@H](CN(C)CC2CCCCC2)Oc2c(NC(=O)Cc3ccccc3)cccc2C1=O	active: 14.6 µM	
O=C(CCn1c(=O)oc2ccc(Cl)cc21)NCCCN1CCOCC1	inactive	
Cc1ccccc1CN1CCN(C/C=C/c2ccccc2)CC1		inconclusive: -35.5% [inhibitor]
CCN(C(=O)CSc1nnc(-c2ccc(OC)cc2)n1C(C)C)C1CCS(=O)(=O)C1 (centres undefined)	inactive	
COc1cc(N(C)C)c(OC)cc1C=C1C=CC=C1	inconclusive [inhibitor, single point]	
COC(=O)[C@]12CCCCC=C1N(CCc1ccc(OC)c(OC)c1)C(=O)[C@H](CC(=O)NCCCN1CCCC1=O)C2	inactive	
COc1ccc(N(CC(O)Cn2c3ccccc3c3ccccc32)S(=O)(=O)c2ccccc2)cc1 (centres undefined)	inconclusive [inhibitor, single point]	
O=c1c(-c2cccs2)nc2cnc(Oc3cccc(Cl)c3)nc2n1C[C@H]1CCCO1	inconclusive [inhibitor, single point]	
CCOC(=O)C1CCCN(C(=O)c2cc(S(=O)(=O)N3CCCCC3)c[nH]2)C1 (centres undefined)	inactive	
CCC(C)(C)n1nnnc1C(c1cc2cc(C)cc(C)c2[nH]c1=O)N1CCCC1 (centres undefined)	inconclusive [inhibitor, single point]	
COc1ccc(CNC(=O)Cn2nnc(-c3ccccc3F)n2)cc1	inactive	
Cc1nn(C)c2ncc(C(=O)c3ccccc3O)cc12	inconclusive [inhibitor, single point]	
CCCn1ccc2c(OCC(=O)NCc3ccc(F)cc3)cccc2c1=O	inconclusive [inhibitor, partial curve, poor fit]	
CC(=O)OCCc1c(C)nc2nc[nH]n2c1=O	inactive	
CCCCN(C)CC(O)Cn1cc(/C=C/C(=O)c2ccc(OC)c(OC)c2)c2ccccc21 (centres undefined)	active: 18.4 µM	
Cc1cccc(-n2c(=O)c3c(n4cnnc24)-c2ccccc2CC32CCCCC2)c1	inconclusive [inhibitor, single point]	
CCCN1CCC(=O)N([C@H](COc2ccccc2)CC(C)C)CC1	inconclusive [inhibitor, single point]	
Cc1ccc(/C=C/C(=O)N2CCCN(C(=O)/C=C/c3ccc(C)cc3)CC2)cc1		inconclusive: -32.9% [inhibitor]
